The entries are a selection whose mix differs from that of the whole data set. The list includes weakly bound sequences.

The test concerns the target T1, GST-Dm-Relish (UniProt Q94527).
T1 sequence: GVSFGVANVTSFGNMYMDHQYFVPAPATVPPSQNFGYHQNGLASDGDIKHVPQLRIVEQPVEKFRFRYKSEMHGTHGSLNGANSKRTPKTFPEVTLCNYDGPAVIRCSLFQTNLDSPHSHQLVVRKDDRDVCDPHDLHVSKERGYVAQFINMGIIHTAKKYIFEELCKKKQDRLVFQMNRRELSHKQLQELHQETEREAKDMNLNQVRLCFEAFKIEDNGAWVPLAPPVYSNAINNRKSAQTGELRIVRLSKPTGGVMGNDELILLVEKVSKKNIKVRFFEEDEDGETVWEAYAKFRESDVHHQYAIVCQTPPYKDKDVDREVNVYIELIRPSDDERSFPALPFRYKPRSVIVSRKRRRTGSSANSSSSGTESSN
Put plainly: protein-binding microarray (PBM). The settings on record: PBM: ~300 nM protein, 6 mM HEPES pH 7.8, 80 mM KCl, 0.5 mM EDTA, 0.5 mM EGTA, 6% glycerol, 35 ng/ul poly-dIdC, 1% milk, 1 h, room temperature; Ap Aiptasia and Nv Nematostella (sea anemones) / Co Capsaspora / Aq Amphimedon (sponge) / Dm Drosophila / Hu human; RHD is the Rel homology domain; high values mean tight binding; most listed sequences are background and not binding sites; double strand, one strand shown.
Take “CCGATTAACATCAAGGAATGTCCTGATGTTAATCGGGTCTTGATTCGCTTGACGCTGCTG”: the binding signal came out at 0.0202 z-score.

“CCGATTAACATCAAGGAGTTTCCTGATGTTAATCGGGTCTTGATTCGCTTGACGCTGCTG” displayed a binding signal of 0.897 z-score.

In turn, “CCGATTAACATCAGAGAATTTCCTGATGTTAATCGGGTCTTGATTCGCTTGACGCTGCTG” registered a binding signal of -0.0887 z-score.

“CCGATTAACATCACGGCATTTCCTGATGTTAATCGGGTCTTGATTCGCTTGACGCTGCTG” gave a binding signal of 0.508 z-score.

As for “CCGATTAACATCAGGATTTGCCCTGATGTTAATCGGGTCTTGATTCGCTTGACGCTGCTG”, the binding signal was -0.115 z-score.

Regarding “CCGATTAACATCAAGGAACTTCCTGATGTTAATCGGGTCTTGATTCGCTTGACGCTGCTG”, the binding signal was 0.208 z-score.

In turn, “CCGATTAACATCAAGGAATCTCCTGATGTTAATCGGGTCTTGATTCGCTTGACGCTGCTG” came in with a binding signal of -0.385 z-score.

As to “CCGATTAACATCAGGAATGTCCATGATGTTAATCGGGTCTTGATTCGCTTGACGCTGCTG”, the binding signal is 0.773 z-score.

Sequence “CCGATTAACATCAAAAAATCTCCTGATGTTAATCGGGTCTTGATTCGCTTGACGCTGCTG” registered a binding signal of 1.02 z-score.

As to “CCGATTAACATCACGGAAAGTACTGATGTTAATCGGGTCTTGATTCGCTTGACGCTGCTG”, the binding signal turned out to be 4.11 z-score.

In turn, “CCGATTAACATCACGGACTGTCCTGATGTTAATCGGGTCTTGATTCGCTTGACGCTGCTG” gave a binding signal of -0.00432 z-score.

On to “CCGATTAACATCAAGGGGGTTTCTGATGTTAATCGGGTCTTGATTCGCTTGACGCTGCTG”, for which the binding signal turned out to be 9.83 z-score.

As for “CCGATTAACATCACGGACTTTCCTGATGTTAATCGGGTCTTGATTCGCTTGACGCTGCTG”, the binding signal worked out at 2.95 z-score.

“CCGATTAACATCACGGCTTTTCCTGATGTTAATCGGGTCTTGATTCGCTTGACGCTGCTG” showed a binding signal of 0.18 z-score.

Take “CCGATTAACATCAGGAATTTTCATGATGTTAATCGGGTCTTGATTCGCTTGACGCTGCTG”: the binding signal was 1.12 z-score.

For “CCGATTAACATCAGAATTTCCGCTGATGTTAATCGGGTCTTGATTCGCTTGACGCTGCTG”, the binding signal is 0.0583 z-score.

As for “CCGATTAACATCAACAAAATTCCTGATGTTAATCGGGTCTTGATTCGCTTGACGCTGCTG”, the binding signal turned out to be 1.6 z-score.

Sequence “CCGATTAACATCATAATGGGAAATGATGTTAATCGGGTCTTGATTCGCTTGACGCTGCTG” returned a binding signal of 0.973 z-score.

For “CCGATTAACATCAAAAATCCGGTTGATGTTAATCGGGTCTTGATTCGCTTGACGCTGCTG”, the binding signal turned out to be 0.978 z-score.

Turning to “CCGATTAACATCAGGAATTTACCTGATGTTAATCGGGTCTTGATTCGCTTGACGCTGCTG”, the binding signal amounted to 4.54 z-score.

In the case of “CCGATTAACATCAGGAAATATCCTGATGTTAATCGGGTCTTGATTCGCTTGACGCTGCTG”, the binding signal was 0.438 z-score.

With “CCGATTAACATCAGGTTATTCCATGATGTTAATCGGGTCTTGATTCGCTTGACGCTGCTG”, the binding signal stood at 2.41 z-score.

The sequence “CCGATTAACATCAAAAATTCCTATGATGTTAATCGGGTCTTGATTCGCTTGACGCTGCTG” showed a binding signal of 1.74 z-score.

“CCGATTAACATCAAAATTTCCGCTGATGTTAATCGGGTCTTGATTCGCTTGACGCTGCTG” had a binding signal of 0.212 z-score.

“CCGATTAACATCAAAATTTCCGTTGATGTTAATCGGGTCTTGATTCGCTTGACGCTGCTG” had a binding signal of 0.911 z-score.

For the sequence “CCGATTAACATCAGCGGAAATCCTGATGTTAATCGGGTCTTGATTCGCTTGACGCTGCTG”, the binding signal amounted to 1.26 z-score.

The sequence “CCGATTAACATCAGGACATTCCATGATGTTAATCGGGTCTTGATTCGCTTGACGCTGCTG” displayed a binding signal of 0.35 z-score.

In turn, “CCGATTAACATCAAACCCTACTGTGATGTTAATCGGGTCTTGATTCGCTTGACGCTGCTG” registered a binding signal of 0.374 z-score.

In turn, “CCGATTAACATCAGAGAAATTCCTGATGTTAATCGGGTCTTGATTCGCTTGACGCTGCTG” returned a binding signal of 0.927 z-score.

As for “CCGATTAACATCAAGTACTTTCCTGATGTTAATCGGGTCTTGATTCGCTTGACGCTGCTG”, the binding signal was 5.26 z-score.

In turn, “CCGATTAACATCATGAAGACCCCTGATGTTAATCGGGTCTTGATTCGCTTGACGCTGCTG” registered a binding signal of 1.35 z-score.

For the sequence “CCGATTAACATCAGGAAATTTACTGATGTTAATCGGGTCTTGATTCGCTTGACGCTGCTG”, the binding signal was 1.36 z-score.

Take “CCGATTAACATCAGAAATGCCCATGATGTTAATCGGGTCTTGATTCGCTTGACGCTGCTG”: the binding signal is 0.803 z-score.

Sequence “CCGATTAACATCATGTTGGGAAATGATGTTAATCGGGTCTTGATTCGCTTGACGCTGCTG” showed a binding signal of 0.16 z-score.

The sequence “CCGATTAACATCAGGAAAAGTACTGATGTTAATCGGGTCTTGATTCGCTTGACGCTGCTG” returned a binding signal of 4.26 z-score.

The sequence “CCGATTAACATCAGGAATCGCCCTGATGTTAATCGGGTCTTGATTCGCTTGACGCTGCTG” yielded a binding signal of 0.569 z-score.

Regarding “CCGATTAACATCATCCGCGGGAGTGATGTTAATCGGGTCTTGATTCGCTTGACGCTGCTG”, the binding signal stood at 0.151 z-score.

“CCGATTAACATCAAAAATATTCCTGATGTTAATCGGGTCTTGATTCGCTTGACGCTGCTG” came in with a binding signal of 0.981 z-score.

Regarding “CCGATTAACATCAGAAATTACCATGATGTTAATCGGGTCTTGATTCGCTTGACGCTGCTG”, the binding signal was 2.33 z-score.

In turn, “CCGATTAACATCAGAAACTTTCCTGATGTTAATCGGGTCTTGATTCGCTTGACGCTGCTG” had a binding signal of 0.896 z-score.

The record behind these values is paper PMC5700166.
